Variants at the background level are over-represented here.

To fix the notation:
B1: TPR 5TU (parent)
chain: GGAUCUUCUCGAUCUAACAAAAAAGACAAAUCUGCCACAAAGCUUGAGAGCAUCUUCGGAUGCAGAGGCGGCAGCCUUCGGUGGCGCGAUAGCGCCAACGUUCUCAACUAUGACACGCAAAACGCGUGCUCCGUUGAAUGGAGUUUAUCAUG

This data set covers variants of B1. Kind of data set: polymerase ribozyme fitness, log enrichment relative to wild type (log ratio); higher = more active; in vitro selection for triplet polymerase activity. The gist of the method:
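Fitness measures genotype enrichment against wild-type enrichment on a logarithmic scale, with inverse-variance-weighted averaging of replicates. The logarithm is base 2, and genotypes were kept only with ≥10 input reads and ≥1 read per output in Illumina sequencing. The sequenced libraries came from one triplicate in vitro selection round, including frozen incubation at −7 °C, of PCR-built, transcribed mutant libraries of each subunit of a heterodimeric triplet polymerase ribozyme.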
Regarding A39C G62U G70A A115G, the “polymerase ribozyme fitness (log ratio)” value was no more than -4.2. The value for C38U C72A C87A A110G G152U was no more than -4.2.

For C38U G84U C93G A97U A120C, the “polymerase ribozyme fitness (log ratio)” value was no more than -4.2. In the case of A39C A66C A73U, the “polymerase ribozyme fitness (log ratio)” value was no more than -4.2. In the case of C38A G71A G136U U144G, the “polymerase ribozyme fitness (log ratio)” value was no more than -4.2. The value for A37C G74U C76G C131U G140C was no more than -4.2; that for A37C A47G G48A G58A G84U G136A was no more than -4.2.

For the variant A37G A47G G74C C76A G80U, the “polymerase ribozyme fitness (log ratio)” value is no more than -4.2. A37G A41G C54U G59U C103G: the “polymerase ribozyme fitness (log ratio)” value was no more than -4.2. Take C38A C85A U144C: the “polymerase ribozyme fitness (log ratio)” value was -0.839. The value for C38G A120U G140C A142C was no more than -4.2; that for C36G A97G was -3.56.

For C36G G62C G84U, the “polymerase ribozyme fitness (log ratio)” value is no more than -4.2. In the case of A37C C95U, the “polymerase ribozyme fitness (log ratio)” value is -2.04. The value for A39C G59C G86A was -3.73. On to C38G G42C G59A C95G C105U, for which the “polymerase ribozyme fitness (log ratio)” value was no more than -4.2.

On to A37C C38U U145C, for which the “polymerase ribozyme fitness (log ratio)” value came to 0.0837. As for A37C A52G G68A, the “polymerase ribozyme fitness (log ratio)” value is no more than -4.2.

Turning to C36U G128C G140U, the “polymerase ribozyme fitness (log ratio)” value was no more than -4.2.

For the variant A37U C43U C87G U127G G136A, the “polymerase ribozyme fitness (log ratio)” value is no more than -4.2.

On to A37G G74U C85A A98U, for which the “polymerase ribozyme fitness (log ratio)” value was no more than -4.2. Consider A37G G50U G74A C87U, for which the “polymerase ribozyme fitness (log ratio)” value is no more than -4.2. The same measure for A39U A41C G80C G84U A142C C149A: no more than -4.2.

In the case of A37C C54G U77C G83C, the “polymerase ribozyme fitness (log ratio)” value is no more than -4.2. With C36U A64G C75G, the “polymerase ribozyme fitness (log ratio)” value was no more than -4.2. The value for C38G U55A C63U C69A A91G A113U C118U G140C was no more than -4.2; that for A37U A49G C93A G133U was no more than -4.2; that for A39G U56G G58C C79U U102A U127G was no more than -4.2.

As to C38U U56A A64G C87U, the “polymerase ribozyme fitness (log ratio)” value was no more than -4.2. The value for A39U A89G G126U was -3.58; that for A37G G46A C93U A98G was no more than -4.2.

On to A37G A91C A138C G140U, for which the “polymerase ribozyme fitness (log ratio)” value was no more than -4.2. Regarding A39G U61A G62C, the “polymerase ribozyme fitness (log ratio)” value is no more than -4.2. As for C36U A49C G88A C93G A115C A120G, the “polymerase ribozyme fitness (log ratio)” value was no more than -4.2.

In the case of A37C C96G U101G A150C U151A, the “polymerase ribozyme fitness (log ratio)” value was no more than -4.2. As to C38A C85U C108G U148C, the “polymerase ribozyme fitness (log ratio)” value was no more than -4.2.

With C38U A73G C87U, the “polymerase ribozyme fitness (log ratio)” value is 0.139. The value for A39G G42A A107C was no more than -4.2. The same measure for C36U A52U U55A G94U A97U: no more than -4.2. For A39C A49G U55A C57A C93A, the “polymerase ribozyme fitness (log ratio)” value is no more than -4.2. The same measure for C38U A39U G88C C123A: no more than -4.2; for A39G U45A A49U U61A C75U G83U C129G U144G: no more than -4.2; for C36U C51U C99G: no more than -4.2.

As to A39C C63A A64U G84A C93G C116G, the “polymerase ribozyme fitness (log ratio)” value was no more than -4.2.

A37U U55G A60G C85G A107C C131U: the “polymerase ribozyme fitness (log ratio)” value is no more than -4.2. As for A37U G58A G59C A121U, the “polymerase ribozyme fitness (log ratio)” value is -0.167. On to A39G G58C C85U U151A, for which the “polymerase ribozyme fitness (log ratio)” value was no more than -4.2. As to A39C G46C U55A G59C G83U G84U G124A, the “polymerase ribozyme fitness (log ratio)” value is no more than -4.2. The same measure for C38U A52U C87A U101C: no more than -4.2.

Take A37C C114U: the “polymerase ribozyme fitness (log ratio)” value is -3.07.

Consider A37G U53A G74A G83A A98G C123G G140C U146C, for which the “polymerase ribozyme fitness (log ratio)” value is no more than -4.2. The same measure for A39G C79A C96U A122G G124U G141C: no more than -4.2. For A39C C85G A120G G126U, the “polymerase ribozyme fitness (log ratio)” value is no more than -4.2. A39C G92U C95A G112A U145G: the “polymerase ribozyme fitness (log ratio)” value is no more than -4.2. For C38U C57G A89U G100C, the “polymerase ribozyme fitness (log ratio)” value is no more than -4.2. The same measure for A39G C57A C99G: -3.15; for A37G A52U G86C C114G G152C: no more than -4.2. In the case of A39U A60G U77G C79U C85U, the “polymerase ribozyme fitness (log ratio)” value was no more than -4.2. For the variant C38A C93G C123G, the “polymerase ribozyme fitness (log ratio)” value is -3.67. Regarding A39U A47C G59U G68C C79A A98U G141U, the “polymerase ribozyme fitness (log ratio)” value is no more than -4.2. As to C38U C72U C95G, the “polymerase ribozyme fitness (log ratio)” value was -0.675.

With C38A C54A C63U G70U C75U C87A, the “polymerase ribozyme fitness (log ratio)” value was no more than -4.2. In the case of C38U G83U C149G A150C, the “polymerase ribozyme fitness (log ratio)” value was no more than -4.2. The same measure for C36G C54A G83U U101G: no more than -4.2. With A39G G117U A147G, the “polymerase ribozyme fitness (log ratio)” value is no more than -4.2. C38U A49C C87A C93A U101C G140U C149A: the “polymerase ribozyme fitness (log ratio)” value was no more than -4.2. A39G C75A G83A G94U G124U: the “polymerase ribozyme fitness (log ratio)” value is no more than -4.2. The value for C36G U55A C76U was no more than -4.2; that for C38A U56G G59U U78C C95A U101C A110G G136U was no more than -4.2.

With C38U G50A A73U G126U, the “polymerase ribozyme fitness (log ratio)” value is -3.21.

For the variant A37C A60C U61G G67A C95A C149U, the “polymerase ribozyme fitness (log ratio)” value is no more than -4.2.

On to A39C U44G C75U C95U A119U G128U, for which the “polymerase ribozyme fitness (log ratio)” value was no more than -4.2. In the case of C38G C69A C79A C95U C108U U146G, the “polymerase ribozyme fitness (log ratio)” value is no more than -4.2.

For A39G C87U A147C C149A, the “polymerase ribozyme fitness (log ratio)” value is no more than -4.2. Take A37U A121G G152U: the “polymerase ribozyme fitness (log ratio)” value is -3.84. With A39G A89G C95G A110U, the “polymerase ribozyme fitness (log ratio)” value was no more than -4.2.

As to A39C G48U G80C U111G, the “polymerase ribozyme fitness (log ratio)” value was no more than -4.2.

Consider C38U C93U A121G G124A U135G, for which the “polymerase ribozyme fitness (log ratio)” value was no more than -4.2. On to C38G U55A G58U A60U G86C G133U, for which the “polymerase ribozyme fitness (log ratio)” value was no more than -4.2. Consider C38U A47C G59C G141A U148G, for which the “polymerase ribozyme fitness (log ratio)” value was no more than -4.2.

Regarding C36U C85U C87U C95U C105G G117U, the “polymerase ribozyme fitness (log ratio)” value is no more than -4.2. Regarding A39U A49G A52G C72A C96U, the “polymerase ribozyme fitness (log ratio)” value is no more than -4.2. Consider A39G G42A C87G, for which the “polymerase ribozyme fitness (log ratio)” value is no more than -4.2.

The values are drawn from the RNAGym collection of RNA variant scans (doi:10.1073/pnas.2313332121).
